In PubChem BioAssay AID686979 (National Center for Advancing Translational Sciences (NCATS), 2013):
Values joined by “and” are separate entries in the source; they are usually repeats but may differ in a detail not shown here. Equal values may be shown once. Among all 420,000 compounds or so, about 50,000 (12%) were called active. This list was built around the results that the source calls inconclusive (neither active nor inactive); the mix of calls is not that of the screen. Calls follow the shape of the dose curve; as a rule, active = well fitted inhibition curve with a large enough effect; inconclusive = small, poorly fitted or top-dose-only effect; inactive = flat fitted curve, though single readings scatter. Potencies beside an inconclusive call are fits to weak or partial responses and may not hold up.

test: qHTS for Inhibitors of human tyrosyl-DNA phosphodiesterase 1 (TDP1): qHTS in cells in presence of CPT; details: chicken DT40 Tdp1-/-;hTDP1 cells + 20 nM CPT, ATP luminescence, 48 h; activity change, negative = growth inhibition: at 46.2 µM (top of the series) unless noted; also: nearly all actives have a fitted effect of over 55% in size
Procedure, shortened: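 Chicken DT40 Tdp1-/- cells complemented with human TDP1, 400 cells/well, exposed to compounds plus 20 nM camptothecin for at least 48 h at 37 C; viability read as ATP content by CellTiter-Glo luminescence.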
% is scaled to controls: 0 for no effect and ±100 for the full control effect; potency is read from the fitted curve at half-maximal effect; tags tell the direction and shape of the fitted curve.

Compound | Potency | activity change, negative = growth inhibition
CCOC(=O)c1cc2sccc2n1CC(=O)N1CCN(C(=O)c2ccco2)CC1 | inactive | –
CC1CCC(NC(=O)COc2ccc(C(=O)c3ccccc3)cc2)CC1 (stereo not drawn) | inconclusive: 18.4 µM [inhibitor, single point] | –
COc1ccc(CNS(=O)(=O)NCc2ccccc2)cc1 | inactive | –
O=C(Cn1cnc2ccccc21)N/N=C/C(Br)=C/c1ccccc1 | active: 6.51 µM | –
Cc1cc(=O)[nH]c(-n2[nH]c3c(c2=O)CCCC3)n1 | inconclusive: 18.4 µM [inhibitor, single point] | –
Cc1ccc(C(C)C)c(OCCNCc2ccccc2)c1 | inconclusive: 18.4 µM [inhibitor, single point] | –
CCc1ccc(C(=O)N2CCC(c3nc4ccccc4s3)CC2)cc1 | inconclusive: 20.6 µM [inhibitor, single point] | –
CCOc1ccccc1CNC(=O)C1CCN(S(=O)(=O)c2ccc3c(ccn3C)c2)CC1 | inconclusive: 16.4 µM [inhibitor, single point] | –
Cc1ccccc1C(=O)Nc1nc(-c2nnn(-c3ccc(C(C)C)cc3)c2C)ns1 | inconclusive: 25.9 µM [inhibitor, single point] | –
O=S(=O)(N(Cc1ccccc1)[C@@H](CO)Cc1ccccc1)N(Cc1ccccc1)[C@@H](CO)Cc1ccccc1 | inconclusive: 7.08 µM [inhibitor, partial curve, poor fit] and inconclusive: 23.1 µM [inhibitor, single point] | –
COCCn1c(C)cc(C(=O)COC(=O)c2ccc3c(c2)NC(=O)CS3)c1C | inactive | –
COc1ccc(CN2CCN(c3ncnc4sc5c(c34)CC(C)CC5)CC2)cc1F (stereo not drawn) | active: 14.6 µM | –
CC(C)NC(=O)c1cc(-c2ccco2)on1 | inconclusive: 25.1 µM [inhibitor, single point] | –
COc1ccc(-c2sc(NC(=O)c3ccc(C)cc3)nc2-c2ccc([N+](=O)[O-])cc2)cc1 | active: 23.1 µM | –
Cc1sc2ncnc(SCC(=O)NCC3CCCO3)c2c1C (stereo not drawn) | active: 0.259 µM | –
COc1ccc(NCc2nnc(SCC#N)n2-c2ccccc2OC)cc1 | inconclusive: 18.4 µM [inhibitor, single point] | –
Cc1cc(Cl)ccc1NC(=O)CN(c1ccccc1Br)S(C)(=O)=O | inconclusive: 29.1 µM [inhibitor, single point] | –
COCC(=O)Nc1cc(C(=O)NC2CCCc3ccccc32)c2c(c1)nc(-c1ccncc1)n2C (stereo not drawn) | inconclusive: 29.1 µM [inhibitor, single point] | –
O=C(CNc1cc(S(=O)(=O)N2CCOCC2)ccc1N1CCCC1)Nc1ccc(Cl)cc1F | inconclusive: 16.4 µM [inhibitor, single point] | –
CS(=O)(=O)N1CCN(c2ccccc2NC(=S)NC(=O)c2cccs2)CC1 | inconclusive: 25.9 µM [inhibitor, single point] | –
CCn1cc(C(=O)NN)c(=O)c2cc(F)c(NC3CCCCC3)cc21 | inconclusive: 29.1 µM [inhibitor, single point] | –
COCOCCn1cc(CN2CCS(=O)(=O)N(Cc3ccc(-c4ccccc4)cc3)C(C(C)C)C2=O)nn1 (stereo not drawn) | inconclusive: 18.4 µM [inhibitor, partial curve] | –
CSc1cccc(CN2CCCC(CNC(=O)c3ccc(F)cc3)C2)c1 (stereo not drawn) | inconclusive: 23.1 µM [inhibitor, single point] | –

Compound | Potency | activity change, negative = growth inhibition
CCOC(=O)c1c(CN2CCOCC2)n(-c2ccccc2)c2cc(Br)c(O)c(CN(C)C)c12 | inconclusive: 16.4 µM [inhibitor, single point] | –
CCN(CC)C(=O)C1CCN(Cc2ccc(OCc3ccccc3)c(OC)c2)CC1 | – | inconclusive: -30.8% [inhibitor]
COc1ccccc1-c1nc(N(C)C)c2ccccc2n1 | inconclusive: 29.1 µM [inhibitor, single point] | –
COc1cc(Cl)c(C)cc1NC(=O)CNC(C)c1ccccc1OC (stereo not drawn) | inconclusive: 16.4 µM [inhibitor, partial curve] | –
CC(=O)N1CCOc2ccc(S(=O)(=O)N(C)c3ccc(C)cc3)cc21 | inconclusive: 25.9 µM [inhibitor, single point] | –
CN(Cc1cnccn1)C(=O)c1cc(COc2cccc(C(F)(F)F)c2)on1 | inconclusive: 25.9 µM [inhibitor, single point] | –
O=C(Nc1ccccc1Cl)c1ccc2nc(N3CCOCC3)sc2c1 | inconclusive: 20.6 µM [inhibitor, partial curve] | –
Cc1ccc(-n2nc(C)c(/C=N/NC(=O)c3cccs3)c2Cl)cc1 | inconclusive: 16.4 µM [inhibitor, partial curve] | –
Cc1ccc(C(=O)NCC(=O)NCc2cc(=O)n(C)c(=O)n2C)cc1C | inactive | –
CC(=NCCc1c(C)[nH]c2ccc(OC(F)(F)F)cc12)C1=C(O)CC(c2ccccc2)CC1=O (stereo not drawn) | active: 4.61 µM | –
CCOc1cccc(CNn2cnnc2)c1OCc1ccccc1 | inactive | –
COc1cc(C(O)c2nc(/C=C/c3ccc(C(F)(F)F)cc3)cs2)ccc1F (stereo not drawn) | inconclusive: 18.4 µM [inhibitor, single point] | –
CC(OC(=O)CCC(=O)c1cccs1)C(=O)Nc1ccc(Cl)cn1 (stereo not drawn) | inconclusive: 18.4 µM [inhibitor, partial curve] | –
CCN(CC(=O)Nc1c(F)cccc1F)C(=O)C1CCN(C(=O)Nc2ccccc2)CC1 | inactive | –
CCc1ccc(-n2c(Cc3ccccc3)nnc2SCc2nc(-c3cccs3)no2)cc1 | active: 23.1 µM | –
C=CCOc1cccc(/C=N/NC(=O)CC(=O)NC2CCCCC2)c1 | inactive | –
COc1ccc(CNC(=O)C2CCC(CNc3c(N4CCCCC4)c(=O)c3=O)CC2)cc1 (stereo not drawn) | inactive | –
O=C(NCCc1ccccn1)c1nc(Cn2cc(Br)cn2)no1 | inactive | –
Cc1nn(-c2ccccc2)c(Cl)c1/C=C/C(=O)c1ccccc1 | inconclusive: 25.9 µM [inhibitor, single point] | –
COc1ccc(C(NC(=O)C2CCN(CCOc3ccc(F)cc3)CC2)c2cccs2)cc1 (stereo not drawn) | inconclusive: 29.1 µM [inhibitor, single point] | –
Cc1ccc(CNC(=O)C23CN(Cc4ccccc4)CC2C(c2ccc([N+](=O)[O-])cc2)=NO3)cc1 (stereo not drawn) | inconclusive: 29.1 µM [inhibitor, single point] | –
COc1ccc(C(=O)N2CCCC(C)(C(=O)NS(=O)(=O)C3CC3)C2)c(OC)c1 (stereo not drawn) | active: 2.06 µM | –
O=C(Nc1ccccc1)N(CCc1ccncc1)C1CCCCC1 | inactive | –

Compound | Potency | activity change, negative = growth inhibition
Cc1ccc(C)n1-c1nnc(N2CCCC(C(=O)NCc3cccc(Cl)c3)C2)s1 (stereo not drawn) | active: 20.6 µM | –
CCOCC(=O)N1CCN(c2ccc([N+](=O)[O-])cc2)CC1 | inconclusive: 16.4 µM [inhibitor, single point] | –
Cn1nc([N+](=O)[O-])nc1Sc1ccc(C(C)(C)C)cc1 | inconclusive: 23.1 µM [inhibitor, single point] | –
CCc1c(C)nc2ncnn2c1N1CCC(C(=O)N2CCN(c3ccc(F)cc3)CC2)CC1 | active: 16.4 µM | –
CC(C)(C)CC(=O)N1CCN(Cc2ccc3c(c2)OCO3)CC1 | inactive | –
Cc1cc(C)cc(-n2ncc3c2CCCC3NC(=O)c2cc(C)[nH]n2)c1 (stereo not drawn) | inconclusive: 18.4 µM [inhibitor, partial curve] | –
Cc1nc2ccn(Cc3cccs3)c(=O)c2cc1C(=O)Nc1ccccc1 | inconclusive: 29.1 µM [inhibitor, single point] | –
Cc1ccc(/C=C/c2onc(C)c2S(=O)(=O)N2CCC(C(=O)NCC(C)c3ccccc3)CC2)cc1 (stereo not drawn) | inconclusive: 1.84 µM [inhibitor, partial curve] | –
Cc1ccccc1S(=O)(=O)Nc1nc2ccccc2nc1N1CCOCC1 | inactive | –
CC1=C(C(=O)NCc2ccc(Cl)cc2)C2(CCCCC2)OC1=O | inconclusive: 29.1 µM [inhibitor, single point] | –
CCN(CC)S(=O)(=O)c1ccc(NC(=O)C2COc3ccccc3O2)cc1 (stereo not drawn) | inconclusive: 16.4 µM [inhibitor, partial curve] | –
Cc1c(C2=CCN(S(=O)(=O)c3ccc(Br)cc3)CC2)c2ccccc2n1C | inconclusive: 14.6 µM [inhibitor, partial curve] | –
O=C(NCCc1ccc(Cl)cc1)C1CCN(S(=O)(=O)N2CCC3(CC2)OCCO3)CC1 | inactive | –
CCCCc1nnc(NC(=O)C(C)Sc2nc(O)c(Cc3ccccc3)c(=O)[nH]2)s1 (stereo not drawn) | inactive | –
CC(C)c1ccc(-c2nc(N3CCCCCC3)nc3n[nH]c(N)c23)cc1 | – | inconclusive: -31.4% [inhibitor]
O=C(NCCc1ccccc1)c1cc(Sc2cccc(Cl)c2)nc2ccccc12 | inconclusive: 16.4 µM [inhibitor, single point] | –
COC(=O)C1=C(C)N(c2cccc(C)c2)C(=O)/C1=C\c1cccs1 | inconclusive: 23.1 µM [inhibitor, partial curve] | –
Cc1nn(CC(=O)Nc2ccc3c(c2)oc2ccccc23)c(=O)c2ccccc12 | inconclusive: 18.4 µM [inhibitor, single point] | –
COCCNc1ccc(-c2n[nH]c(=O)c3ccccc23)cc1[N+](=O)[O-] | active: 14.6 µM | –
Clc1ccccc1-c1cnc2sc(NCc3ccc4c(c3)OCO4)nn12 | inconclusive: 32.6 µM [inhibitor, partial curve, poor fit] | –
Cc1ccc(S(=O)(=O)Oc2ccc(/C=C(/NC(=O)c3ccccc3)C(=O)NCCCC(=O)O)cc2)cc1 | inactive | –
Cc1cccc(C)c1-n1nnnc1C(c1ccnc2ccccc12)N(C)Cc1ccccc1 (stereo not drawn) | inconclusive: 29.1 µM [inhibitor, single point] | –
